# According to the RNAGym collection of RNA variant scans (doi:10.1093/nar/gkz1192):
# The source gives no read counts; variants with many changes may rest on few reads.
# B1: CPEB3 Ribozyme (parent)
# chain: UAACAGGGGGCCACAGCAGAAGCGUUCACGUCGCAGCCCCUGUCAGAUUCUGGUGAAUCUGCGAAUUCUGCUGUAUAUCUC
# Variants of: B1
# Assay: self-cleavage, relative activity (ratio to wild type); higher = more cleavage; in vitro, sequencing
# How it was run: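 Relative activity compares each variant's cleaved/total read fraction with that of the unmutated ribozyme. To get these fractions, barcoded CPEB3 ribozyme libraries from rounds of error-prone PCR were transcribed with T7 RNA polymerase for 5 hours at 37°C and then given 15 min of DNase I treatment before EDTA was added. The RNAs were reverse transcribed with template switching and sequenced on Illumina, and DNA sequencing linked barcodes to variants. A minimum of 5 reads applied, and three batches were averaged.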
row,Variant,self-cleavage
1,UAACAGGGGGCCACAGCGGAAGCGUUCGCGUCGCAGCCCCUGUCAGAUUCUGGUGGAUCUGCGAAUUCCGCUGUAUGUCUC,0.43
2,UAACAGGGGGCCACAGCGGAAGCGUUCGCGUCGCAGCCCCUGUCAGAUUCUGGUGUAACUGCGAAUUCUGCUGUAUAUCUC,0.21
3,UAACAGGGGGCCACAGCGGAAGCGUUCGCGUCGCAGCCCCUGUCAGAUUCUGGUGAAUCUGCGAAUUCUGCUGUGUAUCUC,0.09
4,UAACAGGGGGCCACAGCGGAAGCGUUCGAGUCGCAGCCCCUGACAGAUUCUGGUGAAUCUGCGAAUUCUGCUGUAUAUCUC,0.37
5,UAACAGGGGGCCACAGCGGAAGCGUUCGCGUUGCAGCCCCUGUCAGACUCUGGUGAAUCUGCGAACUCUGCUGUAUAUCUC,0.06
6,UAACAGGGGGCCACAGCGGAAGCGUUCGCCUCGCAGCCCCUGUCAGAUUCUGGUGAAUCUGCGAAUUCUGCUGUAUAUCUC,0.1
7,UAACAGGGGGCCACAGCGGAAGCGUUCGCGUCGCAGCCCCUGUCAGAUUCUGGUGAAUCUCCGAAUUCUGCUGUAUGUCUC,0.13
8,UAACAGGGGGCCACAGCGGAAGCGUUCGCGUCGCAGCCCCCGCCAGAUUCUGGUGAAUCUGCGAAUUCUGCUGUAUAUCUC,0.51
9,UAACAGGGGGCCACAGCGGAAGCGUUCGCGUCGCAGCCCCUGUCAGAUUCUGGGGAAUCUGCGAAUUCUGCUGAAUAUCUC,0.48
10,UAACAGGGGGCCACAGCGGAAGCGUUCGCGUCGCAGCCCCUGUCAGAUUCUGGUGAAAAUGCGAAUUCUGCUGUAUAUCUC,0
11,UAACAGGGGGCCACAGCGGAAGCGUUCUCGUCGCAGCCCCUGUCAGAUUCUGGUGAAUCUGCGGAUUCUGCUGUAUAUCUC,0.16
12,UAACAGGGGGCCACAGCGGAAGCGUUCUCGUCGCAGCCCCGGUCAGAUUCUGGUGAAUCUGCGAAUUCUGCUGUAUAUCUC,0.39
13,UAACAGGGGGCCACAGCGGAAGCGUUCUCGUCGCAGCCCCUGUCAGAUUCCGGUGAAUCUGCGAAUUCUGCUGUAUAUCUC,0.37
14,UAACAGGGGGCCACAGCGGAAGCGUUCUCGUCGCAGCCCCUGUCAGAUUCUGGUGAAUCUGCGAAUUCUGCUGCAUAUCUC,0.61
15,UAACAGGGGGCCACAGCGGAAGCGUUCACGUCGCGGCCCCUGUCCGACUCUGGUGAAUCUGCGGAUUCCGCUGUGUAUCUC,0
16,UAACAGGGGGCCACAGCGGAAGCGUUCACGUCGCGGCCCCUGUCGGAUUCUGGUGGAUCUGCGAAUUCUGCUGUGUAUCUC,0.8
17,UAACAGGGGGCCACAGCGGAAGCGUUCACGUCGCGGCCCCUGUCAGCUUCUGGAGAAUCCGAGAAUUCUGCUGUAUAUCUC,0.17
18,UAACAGGGGGCCACAGCGGAAGCGUUCACGUCGCGGCCCCUGUCAGAUUCUGGUGAGUCUGCGAAUUCUGCUGUAGAUCUC,0.41
19,UAACAGGGGGCCACAGCGGAAGCGUUCACGUCGCGGCCCCUGUCAGAUUCUGGUGAAUCUGCAAAUUCUGCUGUAUAUCUC,1.14
20,UAACAGGGGGCCACAGCGGAAGCGUUCACGUCGCGGCCCCAGUCAGAUUCUGGAGAAUCCGCGAAUUCUGCUGUAUAUCUC,0.41
21,UAACAGGGGGCCACAGCGGAAGCGUUCACGUCGCGGCCCCCGUCAGAUUCUGGUGAAUCUGCGAACUCUGCUGUAUAUCUC,0.37
22,UAACAGGGGGCCACAGCGGAAGCGUUCACGUCGCGGCCCCUGUCAGAUUCUGGUGAAUCUGCGAAUUCUGCAGUAUAUCUC,0.81
23,UAACAGGGGGCCACAGCGGAAGCGUUCACGUCGCGGCCCCUGUCAGAUUCUGGUGAAUCUGCGAAUUCUGCUGUAUACCUC,0.75

row,Variant,self-cleavage
1,UAACAGGGGGCCACAGCGGAAGCGUUCACGUCGCUGCCCCUGUCUGAUUCUGGUUAAUCUGCGAAUUCUGCCGUAUAUCUC,0.17
2,UAACAGGGGGCCACAGCGGAAGCGUUCACGUCGCUGCCCCUGUCAGAUUCUGGUGAAUCUGCGUAUUCUGGUGUAUAUCUC,0.06
3,UAACAGGGGGCCACAGCGGAAGCGUUCACGUCGCUGCCCCUGUCAGAUUCCGGUGAAUCUGCGAUUUCUGCUGUGUAUCUC,0.08
4,UAACAGGGGGCCACAGCGGAAGCGUUCACGUCGCUGCCCCUGUCAGAUUCUGGUGAAUCUGCGAACUCUGCUGUUUAUCUC,0.12
5,UAACAGGGGGCCACAGCGGAAGCGUUCACGUCGCUGCCCCUGUCAGAUUCUGGUGAAUCUGCGAAUACUGCAGUAUAUCUC,0.1
6,UAACAGGGGGCCACAGCGGAAGCGUUCACGUCGCAGCCCCUGUCCCAUUCUGGUGAAUCUGCGAAUUCUGCUGUAUAUCUC,0.31
7,UAACAGGGGGCCACAGCGGAAGCGUUCACGUCGCAGCCCCUGUCCGAUUCUGGUAAAUCUGCGAAUUCUGCCGUAUAUCUC,0.23
8,UAACAGGGGGCCACAGCGGAAGCGUUCACGUCGCAGCCCCUGUCGUAUUCUGGUGGAUCUGUGAAUUCUGCUGUAUACCUC,0.11
9,UAACAGGGGGCCACAGCGGAAGCGUUCACGUCGCAGCCCCUGUCGGAUCCUGGUGAAUCUGCGAGUUCAGCUGCAUAUCUC,0.01
10,UAACAGGGGGCCACAGCGGAAGCGUUCACGUCGCAGCCCCUGUCGGAUCCUCGUGAACCUGCGAAUUCUGCUGUAUAUCUC,0.06
11,UAACAGGGGGCCACAGCGGAAGCGUUCACGUCGCAGCCCCUGUCGGAUUCUGGUGAAUCUGCGAAUUCUGCUGAAUAUCUC,0.68
12,UAACAGGGGGCCACAGCGGAAGCGUUCACGUCGCAGCCCCUGUCUGAUCCUGGUGAAUCUGCGAGUUCUGCUGUAUAUCUC,0.15
13,UAACAGGGGGCCACAGCGGAAGCGUUCACGUCGCAGCCCCUGUCUGAUUCUGGUGAAUCUGCGAAUUCUGCGGUAUAUCUC,0.16
14,UAACAGGGGGCCACAGCGGAAGCGUUCACGUCGCAGCCCCUGUCUGAUUCUGGUGAAUCUGCGAAUUCUGCUGUAUAUCAC,0.47
15,UAACAGGGGGCCACAGCGGAAGCGUUCACGUCGCAGCCCCUGUCUGAUUCUGGUGAAUCUGCGAAUUCUGCUGUAUAUCCC,0.59
16,UAACAGGGGGCCACAGCGGAAGCGUUCACGUCGCAGCCCCUGUCAGGUUCCGGUGAAUCUGCGAAUUCUGCUGUAUAUCUC,0.5
17,UAACAGGGGGCCACAGCGGAAGCGUUCACGUCGCAGCCCCUGUCAGGUUCUGGCGAAACUGCGAAUUCUGCUGUAUAUCUC,0.1
18,UAACAGGGGGCCACAGCGGAAGCGUUCACGUCGCAGCCCCUGUCAGGUUCUGGUGAACCUGCGAAUUCUGCUGUAUAUCUC,0.71
19,UAACAGGGGGCCACAGCGGAAGCGUUCACGUCGCAGCCCCUGUCAGUUUCUGGUGGAUCUGCGAAUUCUGCUGCAUAUCUC,0.12
20,UAACAGGGGGCCACAGCGGAAGCGUUCACGUCGCAGCCCCUGUCAGAUUCUGGUGGAUCUGCGAAUUCUGCUUUAUAUCCC,0.86
21,UAACAGGGGGCCACAGCGGAAGCGUUCACGUCGCAGCCCCUGUCAGAUUCUGGUGGAUCUGCGAAUUCUGCUGUAAAUCUC,0.25
22,UAACAGGGGGCCACAGCGGAAGCGUUCACGUCGCAGCCCCUGUCAGAUUCUGGUGUAUCUGCGUAUUCUGCUGUAUGUCUC,0.38
23,UAACAGGGGGCCACAGCGGAAGCGUUCACGUCGCAGCCCCUGUCAGAUUCUGGUGUAUCUGCGAAUUCUGCUGUAUGUCUC,0.35

row,Variant,self-cleavage
1,UAACAGGGGGCCACAGCGGAAGCGUUCACGUCGCAGCCCCUGUCAGAUUCUGGUGACUCUGCGAAUUCUGCAGUAUAUCUC,0.25
2,UAACAGGGGGCCACAGCGGAAGCGUUCACGUCGCAGCCCCUGUCAGAUUCUGGUGAGUCUGCGGAUUCUGCUGUAUAUCCC,0.61
3,UAACAGGGGGCCACAGCGGAAGCGUUCACGUCGCAGCCCCUGUCAGAUUCUGGUGAGUCUGCGAGUUCUGCUGUAUAUCUC,0.12
4,UAACAGGGGGCCACAGCGGAAGCGUUCACGUCGCAGCCCCUGUCAGAUUCUGGUGAGUCUGCGAGUUCUGCAGUAUAUCUC,0.14
5,UAACAGGGGGCCACAGCGGAAGCGUUCACGUCGCAGCCCCUGUCAGAUUCUGGUGAGACUGCGAAUUCUGCUGUAUAUCUC,0.2
6,UAACAGGGGGCCACAGCGGAAGCGUUCACGUCGCAGCCCCUGUCAGAUUCUGGUGAGUCUGCGAAUUCAGCUGUAUAUCUC,0.45
7,UAACAGGGGGCCACAGCGGAAGCGUUCACGUCGCAGCCCCUGUCAGAUUCUGGUGAAUCUGCGCAUUCUGCUGUAUAUCCC,0.16
8,UAACAGGGGGCCACAGCGGAAGCGUUCACGUCGCAGCCCCUGUCAGAUUCUGGUGAAUCUGCGGAUUCUGCUGUUUAUCUC,0.64
9,UAACAGGGGGCCACAGCGGAAGCGUUCACGUCGCAGCCCCUGUCAGAUUCUGGUGAAUCUGCGUAUUCUGCUGUUUAUCUC,0.35
10,UAACAGGGGGCCACAGCGGAAGCGUUCACGUCGCAGCCCCUGUCAGAUUCUGGUGAAUCUGCGAGUUCUGCUGUAUUUCAC,0.35
11,UAACAGGGGGCCACAGCGGAAGCGUUCACGUCGCAGCCCCUGUCAGAUUCUGGUGAAUCUGCGAGUCCUGCAGUAUAUCUC,0.12
12,UAACAGGGGGCCACAGCGGAAGUGUUCACGUUGCAGCCCCUGUCAGAUUCAGGUGAAUCUGCGAAUUCUGCUGUAUAUCUC,0.23
13,UAACAGGGGGCCACAGCGGAAGUGUUCACGUCGCAGCCCCUGACAGAUUCUGGUGAAUCUGCGAAUUCUGCUGUAUAUCUC,0.17
14,UAACAGGGGGCCACAGCGGAAGUGUUCACGUCGCAGCCCCUGACAGACUCUGGUGAAACUGCGUAUUCUGCUAUAUAUCUC,0.03
15,UAACAGGGGGCCACAGCGGAAGUGUUCACGUCGCAGCCCCUGUCAGAUUCUGGUGAAUCUGCGAAUCCUGCUGUAUAUCUC,0.1
16,UAACAGGGGGCCACAGCGGAAGCGUUAACGUCGCAGCCCCUGUCAGAAUCUGGUGGAUCUGCGAAUUCUGCUGUAUAUCAC,0.04
17,UAACAGGGGGCCACAGCGGAAGCGUUCAAGUCGCAGCCCCUGUCUGAUUCUGGUGAACCUGAGAAUUCUGCUGUAUAUCUC,0.47
18,UAACAGGGGGCCACAGCGGAAGCGUUCAGGUCGCAGCCCCAGUCAGAUUCUGGUGAAUCUGCGAAUCCUGCUGUACAUCUC,0.09
19,UAACAGGGGGCCACAGCGGAAGCGUUCAUGUCGCAGCCCCUGUCAGAUUCUGGUGUAUCUGCGAAUUCUGCUGUAUAUCUC,0.09
20,UAACAGGGGGCCACAGCGGAAGCGUUCAUGUCGCAGCCCCAGUGAGACUCUGGUGAAUCUGCGAAUUCUGCUGUAUAUCUC,0.29
21,UAACAGGGGGCCACAGCGGAAGCGUUCAUGUCGCAGCCCCUGUCAGAUUCUGGUGAAUCCGCGAACUCUGCUGUAUAUCUC,0.14
22,UAACAGGGGGCCACAGCGGAAGCGUUCACGUAGCAGCCCCUGUCGGAUUCUGGUGAAUCUGCGAAUUCUGCUGUAUAUCUC,0.24
